Data: PubChem BioAssay AID652104 (National Center for Advancing Translational Sciences (NCATS), 2013)
In all, about 410,000 compounds went through this assay and about 7,200 (1.8%) were called active. The shares of active, inactive and inconclusive entries below differ from those in the screen. Calls come from the whole dose curve; as a rule, active = well fitted activation curve with a large enough effect; inconclusive = small, poorly fitted or top-dose-only effect, or another doubt; inactive = no such curve, though single readings can be large or run the other way. No potency is given beside an inconclusive call; the fits are too rough.

Test: qHTS of TDP-43 Inhibitors; note: nearly all actives have a fitted effect of over 50% in size; for growth rescue (activation): % of control where 0% means no effect
Settings: TDP-43 expressing yeast growth rescue, BacTiter-Glo, 24 h; growth rescue (activation): at 46.1 µM (top of the series) unless noted
Summary of the method: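 Cell-based yeast growth screen: TDP-43 expression induced in galactose, inoculum OD600=0.02 after raffinose pregrowth to mid-log. Read-out BacTiter-Glo luminescence at 24 hr, 30 deg C; inhibition of toxicity seen as signal increase.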
Potency is the fitted concentration of half-maximal effect; tags give direction and shape of the fitted curve.

Row | Structure (SMILES) | growth rescue (activation) | Potency
1 | N#Cc1c(N)nc2c(c1-c1ccc(Br)s1)CCCC2 | inactive: 11.5% | –
2 | O=C(c1ccc(S(=O)(=O)c2ccccc2Cl)c([N+](=O)[O-])c1)N1CCCCCC1 | – | inconclusive [activator, partial curve]
3 | CCOc1cc(-c2nc(C)c(C(C)=O)n2O)ccc1OCC(=O)Nc1cccc(C)c1 | – | inconclusive [activator, single point]
4 | CCOc1ccccc1NC(=O)CCn1c(=O)oc2ccccc21 | – | inconclusive [activator, partial curve]
5 | FC(F)(F)c1cnc(NNC(=S)Nc2ccccc2)c(Cl)c1 | – | inconclusive [activator, partial curve]
6 | O=C(c1cccc(Cl)c1)N1CCN(c2ncnc3c2cnn3-c2ccccc2)CC1 | inactive: -5.58% | –
7 | CCOc1cc(C2C(C(=O)Nc3ccc(OC)cc3)=C(C)Nc3nc(SC)nn32)ccc1O (configuration not stated) | inactive: 26.8% | –
8 | O=C(C1CCN(c2ncnc3c2nc2n3CCCCC2)CC1)N1CCN(c2ccc(F)cc2)CC1 | – | inconclusive [activator, single point]
9 | c1ccc(-c2csc3ncnc(N4CCc5ccccc5C4)c23)cc1 | – | active: 11.2 µM
10 | CC(=O)Nc1cccc(-c2nc3ccccc3s2)c1 | – | active: 8.91 µM
11 | COCc1nnc(NC(=O)CSc2ccc(C)cc2)s1 | – | inconclusive [activator, single point]
12 | O=C(Nc1ccc2c(c1)OCO2)C1CCCN1C(=O)NCc1ccccc1 (configuration not stated) | – | inconclusive [activator, full curve]
13 | Cc1cc(C)c(S(=O)(=O)NCc2ccc3c(c2)OCO3)c(C)c1 | – | active: 17.8 µM
14 | COc1ccc(-n2cc(C(=O)c3cc(Cl)ccc3O)cc(C#N)c2=O)cc1 | – | inconclusive [activator, single point]
15 | CC1CCN(C(=O)c2cccc(S(=O)(=O)N3CCCc4ccccc43)c2)CC1 | – | inconclusive [activator, partial curve]
16 | COCCNC(=O)C1(C)CCCN(Cc2cc(-c3ccccc3)n(C)n2)C1 (configuration not stated) | – | inconclusive [activator, full curve, poor fit]
17 | Cn1c(=O)c2cc(NC(=O)CCc3cccc(Cl)c3)ccc2n1Cc1cccc(C(F)(F)F)c1 | – | inconclusive [activator, full curve]
18 | Cc1nnc(NC(=O)c2ccc3ccccc3c2)o1 | – | inconclusive [activator, single point]
19 | COc1ccc(Cl)cc1C(=O)NCCCSc1ccccc1 | inactive: 11.7% | –
20 | O=C(CCc1ccccc1)Nc1cc(Cl)ccc1O | – | inconclusive [activator, single point]
21 | CCOc1ccc(C(=O)NCC(=O)OCc2c(F)cccc2Cl)cc1OCC | inactive: -8.61% | –
22 | CCOC(=O)N1CCN(c2nc3c(C)cccn3c(=O)c2C=O)CC1 | – | inconclusive [activator, partial curve]
23 | CCO[C@@H]1OC(C(=O)Nc2ccccc2)=C[C@H](c2ccc(Br)cc2)[C@H]1CCCO | – | inconclusive [activator, single point]
24 | COc1ccc(NC(=O)c2cc(S(=O)(=O)NCC3COc4ccccc4O3)ccc2F)cc1 (configuration not stated) | – | active: 35.5 µM

Row | Structure (SMILES) | growth rescue (activation) | Potency
25 | O=C1CC(c2ccccc2F)c2cc3c(cc2N1)CCC3 (configuration not stated) | inactive: -12.3% | –
26 | Cc1ccc(S(=O)(=O)Oc2ccc(/C=N/NC(=O)c3cccnc3)cc2)cc1 | – | inconclusive [activator, full curve]
27 | Cc1ccc(N2C(=O)NC(NS(=O)(=O)c3ccc(Cl)cc3)(C(F)(F)F)C2=O)cc1C (configuration not stated) | inactive: -6.95% | –
28 | CCCCC(=O)OC1=C(C(C)=O)N(Cc2ccccc2)S(=O)(=O)c2ccccc21 | – | inconclusive [activator, single point]
29 | CCC(C(=O)Nc1nc(C)cs1)c1ccccc1 (configuration not stated) | – | inconclusive [activator, partial curve]
30 | CCCSc1nnc(Cc2cc(=O)[nH]c(=O)[nH]2)n1-c1cc(C)ccc1C | inactive: -9.42% | –
31 | COc1cc(/C=C/C(=O)OCC(=O)Nc2cccc(Oc3ccccc3)c2)ccc1O | – | inconclusive [activator, single point]
32 | O=C(Cn1nc(-c2ccccc2)nc(Cc2ccccc2)c1=O)Nc1ccccc1 | inactive: 3.5% | –
33 | COc1ccc(OC)c(Nc2ncnc3c2cnn3-c2cccc(Cl)c2)c1 | – | inconclusive [activator, full curve]
34 | N#CCCn1nc(-c2ccccc2)cc1-n1c(C(F)(F)F)nc2ccccc21 | – | inconclusive [activator, partial curve]
35 | CCOc1ccc(NC(=O)Cn2c(=O)oc3cc(S(=O)(=O)NC4CCCC4)ccc32)cc1 | inactive: 19.4% | –
36 | Cc1ccc(NC(=O)Cn2c(C)cc(C)c(C#N)c2=O)cc1 | – | inconclusive [activator, partial curve]
37 | Cc1ccc(OCC(=O)NCC(=O)n2nc(C)cc2C)cc1 | – | inconclusive [activator, partial curve]
38 | Cc1c(Cl)cccc1NC(=O)Cc1cccs1 | – | inconclusive [activator, single point]
39 | Cc1cc(C)n2c(NC3CCCCC3)c(-c3cccnc3)nc2n1 | inactive: 10.2% | –
40 | COC(=O)c1cc2c(cc1NC(=O)c1c(C)nn(-c3ccc(C)cc3)c1-n1cccc1)OCO2 | inactive: -4.91% | –
41 | CSc1cccc(NC(=O)c2c(Cl)cnn2C)c1 | – | inconclusive [activator, single point]
42 | COc1ccccc1NC(=O)CSc1nc2ccccc2c(=O)n1CCC(=O)NC1CCCCC1 | inactive: 12.2% | –
43 | CC(C)(C)C(=O)O/N=C(\N)COc1cccc(Cl)c1 | inconclusive: -77.8% [activator] | –
44 | Cc1ccc(Sc2c(C)nn(C(=O)COc3ccccc3)c2C)cc1 | – | inconclusive [activator, single point]
45 | O=S(=O)(c1ccccc1F)N1CCCc2ccccc21 | – | inconclusive [activator, single point]
46 | CC(=O)Nc1ccccc1OCc1cc(=O)n2c3c(sc2n1)CCCC3 | inactive: 9.02% | –
47 | Cc1ccc(S(=O)(=O)N(C(=O)c2ccncc2)c2ccc(OC(=O)c3ccncc3)cc2)cc1 | – | inconclusive [activator, single point]
48 | Cc1[nH]n(-c2cccc(Cl)c2)c(=O)c1C=NCC(C)C | – | inconclusive [activator, single point]

Row | Structure (SMILES) | growth rescue (activation) | Potency
49 | CCCOc1ccc(-c2nnc(-c3ccco3)o2)cc1 | – | inconclusive [activator, full curve]
50 | COc1ccccc1N1CCN(C(=O)c2cc3c(s2)CCCCC3)CC1 | – | active: 22.4 µM
51 | Cc1ccc(-n2ncc3c(N(C)Cc4ccccc4)ncnc32)cc1 | – | inconclusive [activator, single point]
52 | O=C(N/N=C/C(Cl)=C/c1ccccc1)c1ccccn1 | – | active: 10 µM
53 | S=C(NCc1ccc2[nH]c3c(c2c1)CCCC3)Nc1ccccc1Cl | – | inconclusive [activator, partial curve]
54 | CCCC(=O)Nc1ccc(S(=O)(=O)N2CCc3ccccc32)cc1 | – | inconclusive [activator, partial curve]
55 | CCNc1nc(SCCOc2ccc(Br)cc2)nc(N(C)C)n1 | – | inconclusive [activator, single point]
56 | Cc1ccc(C(=O)Nc2ccccc2N2CCN(C(=O)C(C)C)CC2)cc1 | – | inconclusive [activator, single point]
57 | Cc1ccc(NS(=O)(=O)c2ccc(C)c(NC(=O)COc3ccccc3)c2)c(C)c1 | – | inconclusive [activator, partial curve]
58 | Cc1ccccc1NC(=O)C1CCC(CNS(=O)(=O)c2ccc3c(c2)C(C)(C)C(=O)N3C)CC1 (configuration not stated) | inactive: -1.61% | –
59 | COc1ccc(S(=O)(=O)/N=C2/NC(=O)/C(=C\c3cc(OC)c(OC)cc3[N+](=O)[O-])S2)cc1 | – | inconclusive [activator, partial curve]
60 | Cc1ccccc1C(=O)NNC(=S)NC(=O)c1cccs1 | inconclusive: -54.9% [activator] | –
61 | COc1ccc(C2C3=C(CC(C)(C)CC3=O)Oc3ncn(CC(C)C)c(=N)c32)cc1 (configuration not stated) | – | inconclusive [activator, partial curve]
62 | CCc1ccc(S(=O)(=O)c2nnn(-c3ccc(F)cc3)c2N)cc1 | inactive: 4.41% | –
63 | O=C(CSc1nnc(Cc2ccccc2)o1)c1ccccc1 | – | inconclusive [activator, partial curve]
64 | CCCNC(=O)C(=O)NCC(c1ccc2c(c1)OCO2)N1CCOCC1 (configuration not stated) | inactive: 6.35% | –
65 | Cc1cccc(OCC(=O)NCC2(N3CCN(C)CC3)CCCCC2)c1C | inactive: -1.52% | –
66 | CCC(=O)N1CCN(c2cc(C)ccc2C)CC1 | inactive: -3.73% | –
67 | COc1ccc(CCNC(=O)c2ccc(CSc3ccccc3)o2)cc1 | – | inconclusive [activator, single point]
68 | CCCCN(C)Cc1cc(=O)oc2cc3c(cc12)CCCC3 | inactive: -14.2% | –
69 | Cc1ccc(NC(=O)COC(=O)Cn2c(C)csc2=O)cc1C | – | inconclusive [activator, partial curve]
70 | O=C(COC(=O)/C=C/c1ccc(Cl)cc1)NCCc1ccccc1 | inactive: 3.47% | –
71 | CCCn1nc(C(=O)Nc2ccc3c(c2)OCO3)c2ccccc2c1=O | – | inconclusive [activator, partial curve]
72 | Cc1ccc(CNC(=O)CSc2nnc(CNC(=O)c3ccc(F)cc3)o2)cc1 | – | inconclusive [activator, full curve, poor fit]
